# “And” between values parts separate entries of the source, which are not always exact repeats. Equal values may be shown once. In all, about 290,000 compounds went through this assay and about 2,100 (0.72%) were called active. Inconclusive means that the source gave no clear call. Such entries were picked first, then a sample of the others. The call rests on the fitted dose curve; in most records, active means well fitted inhibition curve with a large enough effect; inconclusive means small, poorly fitted or top-dose-only effect, or effect the other way; inactive means flat fitted curve, though single readings scatter. Potencies beside an inconclusive call are fits to weak or partial responses and may not hold up.
# Biological target: Fructose-bisphosphate aldolase (Giardia intestinalis (strain ATCC 50803 / WB clone C6)) (UniProt A8B2U2)
# Sequence of UniProt A8B2U2 (A8B2U2 whole entry, looked up): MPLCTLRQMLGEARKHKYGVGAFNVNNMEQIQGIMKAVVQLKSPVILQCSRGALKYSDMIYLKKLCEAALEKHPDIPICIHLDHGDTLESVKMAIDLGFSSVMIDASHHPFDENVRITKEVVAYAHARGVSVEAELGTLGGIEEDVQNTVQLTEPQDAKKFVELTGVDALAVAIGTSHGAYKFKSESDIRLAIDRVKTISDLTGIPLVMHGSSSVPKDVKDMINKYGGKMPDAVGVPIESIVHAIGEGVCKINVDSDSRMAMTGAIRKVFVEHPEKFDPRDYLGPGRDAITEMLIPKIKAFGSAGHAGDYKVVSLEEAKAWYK
# Experiment: qHTS Assay for Inhibitors of Fructose-1,6-bisphosphate Aldolase from Giardia Lamblia; further: nearly all actives have a fitted effect of over 55% in size
# Conditions: purified Giardia FBPA; activity, negative = inhibition: at 59.6 µM (top of the series) unless noted
# In short: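 40 nM FBPA preincubated 10 min at RT with compound (up to 57.5 uM final), then substrate plus GAPDH/TPI/NAD/arsenate coupling and diaphorase/resazurin added. Fluorescence read after 20 min at RT, 525/598 nm.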
# On the % scale 0 is the no-effect control and ±100 the full control effect; potency means the concentration at half of the fitted maximal effect; tags describe the fitted curve by direction and shape.
Compound,"activity, negative = inhibition",Potency
O=S(=O)(c1ccccc1)c1cc(O)ccc1O,inactive: -4.76%,–
O=C(NNC(=S)NC(=O)c1ccc(Br)cc1)c1cccc([N+](=O)[O-])c1,–,"inconclusive: 31.6 µM [activator, single point]"
CN(C)CCCCOc1ccccc1-c1ccccc1,–,"inconclusive: 15.8 µM [inhibitor, partial curve]"
Cc1c(C(=O)NN)nn(-c2ccc(Cl)cc2)c(=O)c1C#N,–,"inconclusive: 19.9 µM [inhibitor, partial curve]"
CC1CCN(S(=O)(=O)c2ccc(C(=O)Nc3sccc3C(N)=O)cc2)CC1,inactive: 1.3%,–
CCOC(=O)N1CCC(c2cc(=O)n(-c3ccccc3)[nH]2)CC1,–,"inconclusive: 1.99 µM [inhibitor, partial curve]"
CC1(OC(=O)C2CCCC2)C(=O)C=C2C=C(c3ccsc3)N(CCc3c[nH]c4ccccc34)C=C2C1=O (stereo not given),–,"inconclusive: 889 nM [inhibitor, full curve] and inconclusive: 5.61 µM [inhibitor, single point]"
COc1ccc2cc3cc(C(=O)NCc4ccco4)oc3nc2c1,inactive: -8.36%,–
COc1cc(C(=O)NC(=S)NNC(=O)c2cnccn2)cc(OC)c1OC,–,"inconclusive: 44.6 µM [activator, single point]"
CC(C)C(O)(C#CCN1CCCCCC1)c1ccccc1 (stereo not given),inactive: 3.44%,–
COc1cccc(C(=O)Nc2nnc(C(C)C)s2)c1,–,"inconclusive: 15.8 µM [inhibitor, partial curve]"
Cc1ccc(C(=O)NCCCNC(=O)c2ccccn2)cc1,inactive: -10.4%,–
O=C(c1cccnc1)N1CCc2ccccc21,inactive: -3.2%,–
O=C1/C(=C\c2ccc(O)c(O)c2)SC(=S)N1Cc1ccccc1,–,"inconclusive: 7.94 µM [inhibitor, partial curve]"
O=C(NCCc1ccc(Cl)cc1)c1cccs1,inactive: -6.9%,–
C/C(=N/Nc1ncc(C(F)(F)F)cc1Cl)c1ccncc1,–,"inconclusive: 17.7 µM [inhibitor, partial curve]"
O=C(Nc1nc(-c2ccccn2)cs1)c1cc2ccccc2o1,–,"inconclusive: 19.9 µM [inhibitor, single point]"
CCC1(C)Cc2ccccc2-c2nc(NN)[nH]c(=O)c21 (stereo not given),–,active: 22.4 µM
Cc1ccc([N+](=O)[O-])cc1-c1[nH]c(-c2ccc(O)c(O)c2)nc1-c1ccccc1,–,"inconclusive: 12.6 µM [inhibitor, partial curve]"
CCOCCCNCc1cccc(OC)c1,–,"inconclusive: 15.8 µM [inhibitor, partial curve]"
CCn1c2ccccc2c2cc(C3C(C#N)=C(C)NC(C)=C3C#N)ccc21,–,"inconclusive: 25.1 µM [activator, single point]"
CCn1c(CSc2nnc(-c3cccnc3)n2-c2ccccc2C)nc2cc(C(=O)O)ccc21,–,active: 7.92 µM
Cc1c(NC(=O)c2c(N)sc3c2CCCC3)c(=O)n(-c2ccccc2)n1C,–,"inconclusive: 17.7 µM [inhibitor, partial curve]"

Compound,"activity, negative = inhibition",Potency
C/C(=C\C(=O)c1ccc(C)o1)Nc1ccc2c(c1)OCO2,–,"inconclusive: 19.9 µM [inhibitor, single point]"
Nc1nnc2c(n1)CCCC2,–,"inconclusive: 15.8 µM [inhibitor, partial curve]"
CCN(CC)c1ccc(/C=N/Nc2cccc(C)c2)c(O)c1,–,"inconclusive: 28.1 µM [inhibitor, partial curve]"
Oc1ccc(/C=N/Nc2ccc(C(F)(F)F)cn2)cc1O,–,"inconclusive: 15.8 µM [inhibitor, single point]"
COc1cc(OC)c(OC)cc1CN1CCCC(C(=O)N2CCCCC2)C1 (stereo not given),–,"inconclusive: 22.3 µM [inhibitor, partial curve]"
COCc1[nH]c(=S)c(C#N)cc1C(=O)OC,–,active: 15.8 µM
Cc1ccc(C2C(C#N)=C(N)SC(N)=C2C#N)c(C)c1,–,"inconclusive: 9.98 µM [inhibitor, partial curve]"
Brc1ccc(C2Nc3cccc4cccc(c34)N2)o1,–,"inconclusive: 3.97 µM [inhibitor, partial curve]"
Cc1nc2ccn(Cc3ccccc3)c(=O)c2cc1C(=O)N1CCN(c2ccccc2)CC1,inactive: -1.86%,–
COc1cc2c(cc1OC)-c1c(OC)c(OC)c(CO)c3c1C(C2)N(C)CC3 (stereo not given),–,"inconclusive: 6.29 µM [inhibitor, full curve]"
Fc1ccc(Nc2ncnc3ccccc23)cc1,–,"inconclusive: 25.1 µM [inhibitor, single point]"
C=CCc1c(C)nc(C)nc1N/N=C/c1ccccc1O,–,"inconclusive: 8.91 µM [inhibitor, partial curve]"
Cc1ccc(OCc2nnc(SC3CCc4ccccc4C3=O)n2C)cc1 (stereo not given),–,"inconclusive: 44.6 µM [inhibitor, single point]"
C/C(=N\Nc1nc(C(=O)O)cs1)c1ccccc1,–,"inconclusive: 17.7 µM [inhibitor, single point]"
C=CCn1c(NC(=O)c2ccc(C)cc2)nc2ccccc21,–,"inconclusive: 22.4 µM [activator, partial curve]"
O=c1[nH]c2ccccc2c(O)c1Cc1ccccc1,–,"inconclusive: 15.8 µM [inhibitor, partial curve]"
CC(=O)OCCCNc1cc(Sc2nc3ccccc3s2)c2nonc2c1[N+](=O)[O-],–,"inconclusive: 1.26 µM [inhibitor, full curve]"
Cc1noc(NC(=O)c2ccc(Cl)cc2)c1Cl,inactive: -2.63%,–
COC(=O)CN1C(=O)C(O)(CC(=O)c2ccc(Cl)cc2)c2ccccc21 (stereo not given),inactive: 3.35%,–
O=C1C(NS(=O)(=O)c2ccc(Br)cc2)=C(N2CCCCC2)C(=O)c2ccccc21,–,"inconclusive: 15.8 µM [inhibitor, partial curve]"
CC(=O)Nc1ccc(Cc2nc3c([nH]2)c(=O)n(C)c(=O)n3C)cc1,–,"inconclusive: 22.4 µM [inhibitor, single point]"
COc1ccc(OC)c(/C=C2\S/C(=N/NC(=O)c3ccc4ccccc4c3)NC2=O)c1,–,"inconclusive: 17.7 µM [activator, partial curve]"

# Reference: PubChem BioAssay AID2451 (National Center for Advancing Translational Sciences (NCATS), 2010)
